Assay results: the supplement of paper PMC10126150
Sequences with one replicate were seen in a single cluster, so their values are uncertain.

System: ATP
Test: switch fluorescence ratio, 500 uM ATP over buffer (Cy3 cluster intensity, sum of 5 cycles each) (fold (ratio)); higher = stronger signal-on switching upon ATP binding; sequences stand for … in TCGTCGGCAGCGTCAGATGTGTATAAGAGACAGTTTTTTTTTTTTTTTTTTTTTTTTT…TC
Conditions: aptamer strand: ATP DNA aptamer (quencher-CACCTGGGGGAGTATTGCGGAGGAAGG + anchor), 100 nM annealed; ATP concentration: 500 uM; one replicate
How it was run: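 After annealing to 100 nM quencher-labelled ATP aptamer, Cy3-labelled switching-strand clusters on a modified Illumina MiSeq flow-cell were imaged in selection buffer. A second image followed after 15 min with 500 uM ATP at 22 °C, and five such buffer/ATP cycles were done, each separated by NaOH stripping and re-annealing. The fluorescence ratio, averaged per switch-domain sequence, is summed target-cycle over summed buffer-cycle Cy3 intensity per cluster, with clusters outside 100-1000 RFU excluded.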
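Further: ATP exposure 15 min at 22 °C before imaging.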

Row | Sequence | switch fluorescence ratio
1 | TTTATACATC | 1.05
2 | TTTATACTAG | 1.01
3 | TTTATATTCC | 1.02
4 | TTTATCCCGC | 1.17
5 | TTTATCTCGT | 0.979
6 | TTTATTACGA | 1.02
7 | TTTATTCCTC | 0.997
8 | TTTATTGGTA | 1.03
9 | TTTATTGTGA | 1.01
10 | TTTCAACGCT | 1.33
11 | TTTCAAGACG | 1.07
12 | TTTCAATACA | 1.06
13 | TTTCAATTA | 0.958
14 | TTTCAGCGG | 0.984
15 | TTTCATCCA | 1.06
16 | TTTCATTATG | 1.02
17 | TTTCCATCCG | 1.31
18 | TTTCCATGTT | 1.03
19 | TTTCCCCCCT | 1.06
20 | TTTCCCCCTC | 2.66
21 | TTTCCCCGCG | 1.18
22 | TTTCCCGCGC | 1.36
23 | TTTCCGACGA | 4.03
24 | TTTCCGCCA | 3.91
25 | TTTCCGTGT | 1
26 | TTTCCTGATA | 1.03

Row | Sequence | switch fluorescence ratio
27 | TTTCCTTATT | 1.09
28 | TTTCCTTT | 0.979
29 | TTTCGAAGTA | 0.977
30 | TTTCGAAGTT | 1.04
31 | TTTCGCAGAT | 1.06
32 | TTTCGCGGTA | 0.999
33 | TTTCGCGTA | 1.04
34 | TTTCGCTACG | 2.07
35 | TTTCGGTTGA | 1.05
36 | TTTCGTTATA | 1.53
37 | TTTCGTTCTA | 0.96
38 | TTTCTAACT | 0.985
39 | TTTCTAATAG | 1.03
40 | TTTCTACATC | 1.03
41 | TTTCTGCATC | 1.79
42 | TTTCTGGACT | 1.06
43 | TTTCTGGCCC | 1.04
44 | TTTCTGTCTT | 0.92
45 | TTTCTTAAAG | 1.06
46 | TTTCTTCCGA | 1.12
47 | TTTCTTGGAC | 1.02
48 | TTTGAAAAGA | 0.986
49 | TTTGAAATTG | 1.05
50 | TTTGAACATG | 0.953
51 | TTTGAACTGA | 0.964
52 | TTTGAATGAA | 1

Row | Sequence | switch fluorescence ratio
53 | TTTGACAGAG | 0.962
54 | TTTGAGGGT | 0.985
55 | TTTGAGTC | 0.974
56 | TTTGATAAT | 1.05
57 | TTTGATTG | 1.02
58 | TTTGCAGGAA | 1.3
59 | TTTGCCATAA | 0.975
60 | TTTGCCCTG | 1.03
61 | TTTGCGACAG | 1.03
62 | TTTGCGAGCC | 0.975
63 | TTTGCGGATT | 0.988
64 | TTTGCGTAGT | 0.994
65 | TTTGCGTGAT | 1.04
66 | TTTGCTGACC | 1.05
67 | TTTGCTTGC | 1
68 | TTTGCTTGCT | 1
69 | TTTGGAAGTG | 0.967
70 | TTTGGCCGAC | 1.04
71 | TTTGGCCGTC | 1.21
72 | TTTGGCTCTA | 1.03
73 | TTTGGGTCCA | 1.01
74 | TTTGGGTCCT | 1.01
75 | TTTGGGTGT | 1.07
76 | TTTGGTATCG | 0.984
77 | TTTGGTCCAC | 0.996
78 | TTTGGTCGAC | 0.996

Row | Sequence | switch fluorescence ratio
79 | TTTGGTCTAC | 1.03
80 | TTTGGTGTAC | 1.16
81 | TTTGGTTAG | 0.936
82 | TTTGTAAGAC | 1.18
83 | TTTGTATAT | 1.04
84 | TTTGTATATA | 1
85 | TTTGTCCTT | 1.02
86 | TTTGTCTCTT | 1
87 | TTTGTCTGAG | 0.971
88 | TTTGTGAAGT | 1.01
89 | TTTGTGCCCT | 1.01
90 | TTTGTGGTCA | 1
91 | TTTGTGTACC | 1.11
92 | TTTGTTCCCT | 1.02
93 | TTTGTTGAA | 1.01
94 | TTTGTTGTG | 1.01
95 | TTTTAAAAGC | 0.979
96 | TTTTAATCT | 1.02
97 | TTTTACACCA | 1.09
98 | TTTTACACTC | 1
99 | TTTTACCAAG | 1.07
100 | TTTTACTTCC | 1.51
101 | TTTTAGAACT | 1.01
